Assay results from article PMC1939999.
No constants are given. Whether binding was seen depends on the method and setting. In cells and extracts the contact can be indirect. Some entries that bind do so weakly or less than the wild type.

What was measured:
Conditions in all cases: remark: other sources report otherwise
[1] = target: T1, survival of motor neurons (SMN) protein (human (endogenous in HeLa)), Q16637; experiment: co-IP; MANSMA1 anti-SMN mAb on anti-mouse Ig Dynabeads, 16 h at 4°C with HeLa nuclear extract (420 mM KCl, 20 mM HEPES-KOH pH 7.9), washed 5x with PBS, western blot
[2] = target: T1, survival of motor neurons (SMN) protein …; experiment: co-IP; MANSMA1 anti-SMN mAb on anti-mouse Ig Dynabeads, 16 h at 4°C with HeLa cytoplasmic extract (10 mM KCl, 10 mM HEPES-KOH pH 7.9), washed 5x with PBS, western blot
[3] = target: T1, survival of motor neurons (SMN) protein …; experiment: co-sedimentation; HeLa cytoplasmic extract (low salt) on 15-30% sucrose density gradient in 150 mM NaCl, 50 mM Tris HCl pH 7.4, 5 mM MgCl2, 21 hours at 4°C; fractions western blotted

Measured: binding

B1: gemin4, P57678 1-1058 (protein)
chain: MDLGPLNICEEMTILHGGFLLAEQLFHPKALAELTKSDWERVGRPIVEALREISSAAAHSQPFAWKKKALIIIWAKVLQPHPVTPSDTETRWQEDLFFSVGNMIPTINHTILFELLKSLEASGLFIQLLMALPTTICHAELERFLEHVTVDTSAEDVAFFLDVWWEVMKHKGHPQDPLLSQFSAMAHKYLPALDEFPHPPKRLRSDPDACPTMPLLAMLLRGLTQIQSRILGPGRKCCALANLADMLTVFALTEDDPQEVSATVYLDKLATVISVWNSDTQNPYHQQALAEKVKEAERDVSLTSLAKLPSETIFVGCEFLHHLLREWGEELQAVLRSSQGTSYDSYRLCDSLTSFSQNATLYLNRTSLSKEDRQVVSELAECVRDFLRKTSTVLKNRALEDITASIAMAVIQQKMDRHMEVCYIFASEKKWAFSDEWVACLGSNRALFRQPDLVLRLLETVIDVSTADRAIPESQIRQVIHLILECYADLSLPGKNKVLAGILRSWGRKGLSEKLLAYVEGFQEDLNTTFNQLTQSASEQGLAKAVASVARLVIVHPEVTVKKMCSLAVVNLGTHKFLAQILTAFPALRFVEEQGPNSSATFMVSCLKETVWMKFSTPKEEKQFLELLNCLMSPVKPQGIPVAALLEPDEVLKEFVLPFLRLDVEEVDLSLRIFIQTLEANACREEYWLQTCSPFPLLFSLCQLLDRFSKYWQLPKEKRCLSLDRKDLAIHILELLCEIVSANAETFSPDVWIKSLSWLHRKLEQLDWTVGLRLKSFFEGHFKCEVPATLFEICKLSEDEWTSQAHPGYGAGTGLLAWMECCCVSSGISERMLSLLVVDVGNPEEVRLFSKGFLVALVQVMPWCSPQEWQRLHQLTRRLLEKQLLHVPYSLEYIQFVPLLNLKPFAQELQLSVLFLRTFQFLCSHSCRDWLPLEGWNHVVKLLCGSLTRLLDSVRAIQAAGPWVQGPEQDLTQEALFVYTQVFCHALHIMAMLHPEVCEPLYVLALETLTCYETLSKTNPSVSSLLQRAHEQRFLKSIAEGIGPEERRQTLLQKMSSF
binds: all assays above
